In PubChem BioAssay (NCI):
Values joined by “and” are separate entries in the source; they are usually repeats but may differ in a detail not shown here. Identical values can stand only once.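 96-well plates; 48 h exposure; 5 concentrations. Endpoints by linear interpolation between flanking doses. Not reached: highest tested concentration assigned. At the GI50, growth is halved. At the TGI there is no net growth.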 Square brackets hold non-standard residues; d marks the D form. Peptide text beside a SMILES is read from it. * marks the point of attachment. Bn2Val = CC(C)[C@@H](C(=O)*)N(Cc1ccccc1)Cc1ccccc1; NH(3,4-diMeO-benzyl) = COc1ccc(CN*)cc1OC; NMeV = CN[C@H](C(=O)O)C(C)C; dNMeA = CN[C@H](C)C(=O)O

These molecules were tested on NCI-H322M lung (assay: DTP human tumour cell line panel, 48 h).

| SMILES | TGI | GI50 |
| --- | --- | --- |
| N=[N+]=CC(=O)OCC(N)C(=O)O (stereo unspecified) | 88 µM | – |
| CC(=O)/C(=C/n1c(=S)sc2ccccc21)C(=O)Nc1ccccc1C | > 100 µM | – |
| CNC(=O)c1cc(Oc2ccc3c(c2)sc2nc(-c4ccc(N)cc4)cn23)ccn1 | > 100 µM | 0.668 µM |
| COc1nc2c(cc1S(=O)(=O)c1ccccc1)CCc1c-2cnn1-c1ccccc1Cl | > 100 µM | 4.76 µM |
| CC1(C)N=C(N)N=C(N)N1c1ccc(CCCCc2ccc(S(=O)(=O)F)cc2Cl)c(Cl)c1 | 190 µM | – |
| CN1CCN(C(=S)N(C)C(=O)c2ccc(Cl)cc2)CC1 | > 100 µM | – |
| C[Si](C)(C)c1ccc(CC2(Cc3ccc([Si](C)(C)C)cc3)CCNC2)cc1 | 13.7 µM | – |
| COc1cc2c(c(OC)c1OC)-c1ccc(NCc3ccccc3)c(=O)cc1[C@@H](NC(C)=O)CC2 | > 100 µM | 0.612 µM |
| Cc1cccc(C(C)(C)C)c1NC(=O)C(=O)Cc1nc2ccccc2s1 | > 100 µM | – |
| C/C(=N\NC(N)=S)c1ccc(C)cc1C | > 100 µM | – |
| O=C1/C(=C/c2ccc(Br)s2)NC(=S)N1CN1CCOCC1 | > 100 µM | – |
| COc1cc([C@@H]2c3cc4c(cc3[C@@H](NC(=O)c3cccc([N+](=O)[O-])c3)C3COC(=O)[C@@H]32)OCO4)cc(OC)c1O (stereo partly specified) | > 100 µM | – |
| CN1CCCNCCN(CCc2ccccn2)CCCN(C)CC1 | > 100 µM | – |
| N#CC(C#N)=C1CCCS(=O)(=O)c2ccccc21 | > 100 µM | – |
| COc1cc2c(c(O)c1C)C(=O)C(Cl)=CC2=O | 34.1 µM | – |
| CN(C)S(=O)(=O)Nc1ccccn1 | > 100 µM | – |
| Cc1cc(O)cc(O)c1N=Nc1ccc([N+](=O)[O-])cc1 | 43.8 µM | – |
| N#Cc1c2c(c(Nc3ccc(F)cc3)n3c1nc1ccccc13)CCC2 | 23.7 µM | – |
| COc1ccc2c(c1)C(=O)c1ccccc1C2 | > 100 µM | – |
| c1ccc(N=c2snc(-c3ccccc3)s2)cc1 | > 100 µM | – |
| CCC1CCC2CCCC(C)N12 (stereo unspecified) | > 100 µM | – |
| O=C(O)c1ccc(NS(=O)(=O)Cc2ccccc2)cc1 | > 100 µM | – |
| O=C1CCC(NC(=O)c2ccccc2)C(=O)N1 (stereo unspecified) | > 100 µM | – |
| O=c1c(Cl)c(Cl)cnn1-c1ccccc1 | 11.6 µM and 17.8 µM | 2.68 µM and 9.53 µM |
| O=C1Oc2cc3c(c4cccc1c24)OCN(c1ccc(Cl)cc1)C3 | > 100 µM | – |

| SMILES | TGI | GI50 |
| --- | --- | --- |
| C(=Nc1ccc(-c2nc3ccccc3s2)cc1)c1ccco1 | > 100 µM | – |
| COc1ccc(-n2cc(-c3ccc(OC)c(OC)c3)[nH]c2=S)cc1Cl | > 100 µM | > 100 µM |
| COc1cc2c(cc1OC)C1C=NC(C(=O)O)(C2)c2ccccc21 (stereo unspecified) | > 100 µM | – |
| COC(=O)C1CC(C=[N+](C)C)=C(SC)N1 (stereo unspecified) | > 100 µM | – |
| Clc1ccc(Cc2nc3cc4ccccc4cc3[nH]2)cc1 | > 100 µM | 27.3 µM |
| O=C(/C=C(\[O-])c1ccccc1)CCCCCCC(=O)/C=C(\[O-])c1ccccc1.O=C(/C=C(\[O-])c1ccccc1)CCCCCCC(=O)/C=C(\[O-])c1ccccc1.O=C(/C=C(\[O-])c1ccccc1)CCCCCCC(=O)/C=C(\[O-])c1ccccc1.[La+3].[La+3] | > 50 µM | > 50 µM |
| O=C(CCc1ccc(O)cc1)c1c(O)cc(O)cc1OC1OC(CO)C(O)C(O)C1O (stereo unspecified) | > 100 µM | – |
| CN(O)C(=O)Cc1ccc(OCc2cccc(Cl)c2)cc1 | > 100 µM | – |
| Cc1cccc2c3ccc4c(c3n(C)c12)C(=O)C=CC4=O | > 100 µM | – |
| Cc1cccc(N(CCC#N)S(=O)(=O)c2ccccc2)c1 | > 100 µM | – |
| CN1C(=O)CN(NC(=O)C2=C(O)c3ccc(Br)cc3S(=O)(=O)N2)C1=S | > 100 µM | – |
| COc1cccc(-c2nc(-c3cnccn3)n(Cc3ccccc3)n2)c1 | > 100 µM | – |
| CC1=CC(=O)N(n2c(C)n[nH]c2=O)C1=O | > 100 µM | – |
| CC1CCC[P+](Cc2ccccc2)(c2ccccc2)CC1 (stereo unspecified) | > 100 µM | – |
| CC[n+]1ccc2c(c1)C(=O)c1nccc3c1c-2nc1ccccc13 | 3.7 µM | 0.711 µM |
| COc1cccc(-c2nn(-c3ccccc3)cc2-c2ccnc(NCCCNS(=O)(=O)c3cccc(F)c3)c2)c1 | > 100 µM | > 100 µM |
| COc1ccc(CNC(=O)[C@@H](C)N(C)C(=O)[C@@H]2CCCN2C(=O)[C@H](C(C)C)N(C)C(=O)[C@@H](NC(=O)[C@H](C(C)C)N(Cc2ccccc2)Cc2ccccc2)C(C)C)cc1OC (Bn2Val-V[NMeV]P[dNMeA]-{NH(3,4-diMeO-benzyl)}) | 50 µM and 49.9 µM | 15.6 µM |
| COc1ccc(N=Cc2cc(OC)c(OC)c(OC)c2)cc1 | > 100 µM | – |
| NNC(=O)c1cnn(-c2ccnc3c(C(F)(F)F)cccc23)c1N | > 100 µM | > 100 µM |
| COC1C=CC23c4cc5c(cc4C(O)OC2CN(C)C3C1)OCO5 (stereo unspecified) | 9.45 µM | – |
| N#Cc1c(O)c2c(c(O)c1C#N)C(=O)c1ccccc1C2=O | 12.1 µM | 2.92 µM |
| O=C1OC[C@@H]2Cc3c([nH]c4ccccc34)[C@@H](c3ccc(O)cc3)N12 | > 100 µM | – |
| CC(=O)OCC1OC(n2c(=S)[nH]c(-c3ccccc3)c(C#N)c2=O)C(OC(C)=O)C(OC(C)=O)C1OC(C)=O (stereo unspecified) | > 100 µM | – |
| CSc1c(C(=O)Nc2ccc(C)cc2)c(N)[nH]c(=O)c1C#N | > 100 µM | – |
